In the supplement of paper PMC4967469:
A lower IC50 marks a more sensitive line; where the fit passes the top or lowest dose, that dose stands as a limit. For AUC the same curve is integrated over the 256-fold range of doses and scaled to a fraction; it is 1 without any effect and falls as sensitivity rises. For some of these results: Where the top dose is marked as inferred, it was derived from the fitted curves, not read from the paper. For some of these results: Drugs with an entry number were screened twice under separate entries, and the two screens often disagree.

Key:
Assay in all cases: Viability of human cancer cell lines after 72 h of drug (GDSC screen)
AZ628 = compound: Cc1ccc(NC(=O)c2cccc(C(C)(C)C#N)c2)cc1Nc1ccc2ncn(C)c(=O)c2c1 [AZ628]; details: top dose 4 µM; top dose inferred
Procedure: (§1)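 Human cancer cell lines in 384-well plates, medium with 10% serum, drug for 72 h over a 256-fold dose range (nine 2-fold or five 4-fold steps up to the top dose). Adherent lines were fixed and stained with the nucleic acid dye Syto60, suspension lines read with resazurin; signal relative to control wells, capped at 0 and 100%. One two-parameter sigmoid per drug and line, fitted in a mixed model over all curves with the slope shared within a line.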

AZD6244 = compound: Cn1cnc2c(F)c(Nc3ccc(Br)cc3Cl)c(C(=O)NOCCO)cc21 [AZD6244]; details: top dose 4 µM; screen: GDSC drug entry 1498; top dose inferred
Procedure: as §1

AS601245 = compound: N#CC(c1ccnc(NCCc2cccnc2)n1)c1nc2ccccc2s1 [AS601245]; details: top dose 8 µM; top dose inferred
Procedure: as §1

EX-527 = compound: NC(=O)C1CCCc2c1[nH]c1ccc(Cl)cc21 [EX-527]; details: top dose 20 µM
Procedure: as §1

YM201636 = compound: Nc1ccc(C(=O)Nc2cccc(-c3nc(N4CCOCC4)c4oc5ncccc5c4n3)c2)cn1 [YM201636]; details: top dose 5.12 µM; top dose inferred
Procedure: as §1

Row | Cell Line | AUC (AZ628) | IC50 (AZ628) [µM] | AUC (AZD6244) | IC50 (AZD6244) [µM] | AUC (AS601245) | IC50 (AS601245) [µM] | AUC (EX-527) | IC50 (EX-527) [µM] | AUC (YM201636) | IC50 (YM201636) [µM]
1 | NOMO-1 (acute myeloid leukaemia, suspension) | 0.69 | 0.924 | 0.442 | 0.17 | 0.9 | > 8 | 0.946 | > 20 | 0.863 | > 5.12
2 | NOS-1 (osteosarcoma, adherent) | 0.367 | 0.0985 | 0.902 | > 4 | 0.783 | 4.2 | 0.98 | > 20 | 0.787 | 2.8
3 | NTERA-2 cl.D1 (testis, adherent) | 0.928 | > 4 | 0.942 | > 4 | 0.872 | 7.52 | 0.985 | > 20 | 0.914 | > 5.12
4 | NU-DUL-1 (B-cell lymphoma, suspension) | 0.879 | 2.74 | 0.992 | > 4 | 0.874 | 5.27 | 0.989 | > 20 | 0.576 | 0.494
5 | OCI-AML2 (acute myeloid leukaemia, suspension) | 0.118 | 0.0258 | 0.068 | 0.0167 | 0.843 | 3.69 | 0.963 | > 20 | 0.868 | 2.81
6 | OCI-AML3 (acute myeloid leukaemia, suspension) | 0.558 | 0.351 | 0.239 | 0.0506 | 0.949 | > 8 | 0.985 | > 20 | 0.847 | 2.98
7 | OCI-AML5 (acute myeloid leukaemia, suspension) | 0.55 | 0.337 | 0.803 | 1.79 | 0.937 | > 8 | 0.988 | > 20 | 0.841 | 3.11
8 | OCI-LY-19 (B-cell lymphoma, suspension) | 0.636 | 0.575 | 0.883 | 3.7 | 0.849 | 5.29 | 0.985 | > 20 | 0.736 | 1.41
9 | OCI-M1 (acute myeloid leukaemia, suspension) | 0.967 | > 4 | 0.971 | > 4 | 0.9 | 5.89 | 0.992 | > 20 | 0.884 | 3.31
10 | OCUB-M (breast, adherent) | 0.959 | > 4 | 0.98 | > 4 | 0.619 | 1.01 | 0.977 | > 20 | 0.914 | > 5.12
11 | OMC-1 (cervix, adherent) | 0.987 | > 4 | 0.914 | > 4 | 0.896 | > 8 | 0.987 | > 20 | 0.972 | > 5.12
12 | ONS-76 (medulloblastoma, adherent) | 0.436 | 0.165 | 0.422 | 0.15 | 0.971 | > 8 | 0.983 | > 20 | 0.934 | > 5.12
13 | OPM-2 (myeloma, suspension) | 0.856 | 2.32 | 0.993 | > 4 | 0.937 | > 8 | 0.994 | > 20 | 0.839 | 2.61
14 | OS-RC-2 (kidney, adherent) | 0.936 | > 4 | 0.84 | > 4 | 0.794 | 5.73 | 0.978 | > 20 | 0.912 | > 5.12
15 | OVCAR-4 (ovary, adherent) | 0.933 | > 4 | 0.716 | 1.4 | 0.798 | 6.22 | 0.971 | > 20 | 0.871 | > 5.12
16 | P30-OHK (lymphoblastic leukaemia, suspension) | 0.984 | > 4 | 0.986 | > 4 | 0.798 | 3.1 | 0.991 | > 20 | 0.583 | 0.519
17 | P31-FUJ (acute myeloid leukaemia, suspension) | 0.995 | > 4 | 0.937 | > 4 | 0.979 | > 8 | 0.996 | > 20 | 0.99 | > 5.12
18 | P32-ISH (Burkitt lymphoma, suspension) | 0.98 | > 4 | 0.995 | > 4 | 0.849 | 3.88 | 0.995 | > 20 | 0.768 | 1.48
19 | PF-382 (T-cell lymphoblastic leukaemia, suspension) | 0.882 | 3.31 | 0.99 | > 4 | 0.898 | 7.84 | 0.99 | > 20 | 0.789 | 1.96
20 | PL-21 (acute myeloid leukaemia, suspension) | 0.545 | 0.338 | 0.782 | 1.98 | 0.886 | > 8 | 0.971 | > 20 | 0.753 | 1.96
21 | PSN1 (pancreas, adherent) | 0.218 | 0.0445 | 0.52 | 0.282 | 0.801 | 3.2 | 0.981 | > 20 | 0.892 | 4.33
22 | QIMR-WIL (acute myeloid leukaemia, suspension) | 0.848 | 2.85 | 0.954 | > 4 | 0.848 | 5.69 | 0.985 | > 20 | 0.781 | 2.05
23 | RC-K8 (B-cell lymphoma, suspension) | 0.972 | > 4 | 0.98 | > 4 | 0.946 | > 8 | 0.991 | > 20 | 0.963 | > 5.12
24 | RCC10RGB (kidney, adherent) | 0.959 | > 4 | 0.799 | > 4 | 0.827 | > 8 | 0.962 | > 20 | 0.897 | > 5.12
25 | REH (B-cell leukaemia, suspension) | 0.925 | > 4 | 0.985 | > 4 | 0.831 | 4.81 | 0.984 | > 20 | 0.805 | 2.45
